The list shows a part of the results. Repeats are few or missing, and single values can be far off.
Key:
Experiment in all cases: cell count relative to DMSO control; melanoma cells; higher = more viable cells
Conditions in all cases: library dose: low library concentration; 72 h
MZ2-MEL = tested on: MZ2-MEL
MeWo = tested on: MeWo
RPMI7951 = tested on: RPMI7951
RVH-421 = tested on: RVH-421
SkMel28 = tested on: SkMel28
SkMel30 = tested on: SkMel30
SkMel5 = tested on: SkMel5
UACC257 = tested on: UACC257
UACC62 = tested on: UACC62
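Also: cell number obtained by counting DAPI-stained nuclei in high-throughput microscope images with image analysis software, screen run in 1,536-well plates.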

SMILES	cell count (MZ2-MEL) [%]	cell count (MeWo) [%]	cell count (RPMI7951) [%]	cell count (RVH-421) [%]	cell count (SkMel28) [%]	cell count (SkMel30) [%]	cell count (SkMel5) [%]	cell count (UACC257) [%]	cell count (UACC62) [%]
CN(C)S(=O)(=O)c1ccc2c(c1)/C(=C/c1cc3c([nH]1)CCCC3)C(=O)N2 + N#Cc1c(O)c2c(-c3ccc(-c4ccccc4O)cc3)csc2[nH]c1=O [A769662] (first compound 0.4 µM, partner dose 2 µM)	104	88.3	102	110	96.3	93	103	101	99.2
OCCn1cc(-c2cnc3nnn(Cc4ccc5ncccc5c4)c3n2)cn1 + Cn1cc(/C=C2\C(=O)Nc3cccnc32)c2ccccc21 [GW441756] (first compound 1 µM, partner dose 0.4 µM)	92.7	90.2	97.1	498	82.7	107	85.8	111	90.8
C=CCn1c(=O)c2cnc(Nc3ccc(N4CCN(C)CC4)cc3)nc2n1-c1cccc(C(C)(C)O)n1 + COc1cc2ncnc(Nc3ccc(Oc4ccccc4)cc3)c2cc1OC [SrcI1] (first compound 0.02 µM, partner dose 2 µM)	95	89.7	113	99.9	85.7	87.2	81.1	77.9	78.9
CO[C@@H]1[C@H](N(C)C(=O)c2ccccc2)C[C@H]2O[C@]1(C)n1c3ccccc3c3c4c(c5c6ccccc6n2c5c31)C(=O)NC4 [Midostaurin] + O=C1NC(=O)/C(=C/c2ccc(-c3ccc(F)cc3O)o2)S1 [AS252424] (first compound 0.08 µM, partner dose 1 µM)	91.9	83.4	91	102	78.3	114	97.5	76.7	110
OCCn1cc(-c2cnc3nnn(Cc4ccc5ncccc5c4)c3n2)cn1 + COc1ccc2c(c1)CCC1C2CCC2(C)C(NCCCCCCN3C(=O)C=CC3=O)CCC12 [U73122] (first compound 1 µM, partner dose 0.4 µM)	102	98.8	94.4	108	90	109	83.1	93.4	95.9
OCCn1cc(-c2cnc3nnn(Cc4ccc5ncccc5c4)c3n2)cn1 + CC(C)CCN1c2nc(Nc3cc(F)c(O)c(F)c3)ncc2N(C)C(=O)C1C [BID1870] (first compound 1 µM, partner dose 0.2 µM)	97.2	103	102	119	95.8	64.3	98.8	103	98.8
Cc1nc(Nc2ncc(C(=O)Nc3c(C)cccc3Cl)s2)cc(N2CCN(CCO)CC2)n1 [dasatanib] + COc1ccc(-c2ccc3c(N4CCOCC4)nc(N4C[C@@H](C)O[C@@H](C)C4)nc3n2)cc1CO [KU0063794] (first compound 0.004 µM, partner dose 0.02 µM)	69.6	91.2	62.2	72.9	60.3	88.3	98.6	69.5	85.8
CN(C)S(=O)(=O)c1ccc2c(c1)/C(=C/c1cc3c([nH]1)CCCC3)C(=O)N2 + COc1ccc(-c2ccc3c(N4CCOCC4)nc(N4C[C@@H](C)O[C@@H](C)C4)nc3n2)cc1CO [KU0063794] (first compound 0.4 µM, partner dose 0.02 µM)	93	84.1	97.6	88.8	70.3	101	86.7	63.2	79.4
C[C@]1(c2nc3c(C(N)=O)cccc3[nH]2)CCCN1 [Veliparib] + CCc1ccc(CCOc2ccc(CC3SC(=O)NC3=O)cc2)nc1 [pioglitazone] (first compound 1.4 µM, partner dose 2 µM)	98.2	85.8	119	83.2	81.2	95.4	97.4	72.1	84.5
NC(=O)Nc1cc(-c2cccc(F)c2)sc1C(=O)N[C@H]1CCCNC1 + O=S(=O)(c1ccccc1)N(CC(F)(F)F)c1ccc(C(O)(C(F)(F)F)C(F)(F)F)cc1 [T0901317] (first compound 0.02 µM, partner dose 1.4 µM)	99.6	102	110	129	95	100	88.1	118	89.8
NCC(=O)Nc1ccc(-n2nc(C(F)(F)F)cc2-c2ccc3c(ccc4ccccc43)c2)cc1 + N#Cc1c(O)c2c(-c3ccc(-c4ccccc4O)cc3)csc2[nH]c1=O [A769662] (first compound 1 µM, partner dose 2 µM)	90.7	58.1	97.2	97.3	83.1	44.8	98.4	98.3	96.8
Cc1nc(Nc2ncc(C(=O)Nc3c(C)cccc3Cl)s2)cc(N2CCN(CCO)CC2)n1 [dasatanib] + Cn1cc(/C=C2\C(=O)Nc3cccnc32)c2ccccc21 [GW441756] (first compound 0.004 µM, partner dose 0.4 µM)		94.2	65.8	94.7	94.5	98.2	83	67.4	106
